The values that follow come from US20230125301A1 (published 2023).

Read-outs that look alike come from different tables or passages of the source.

The target in assay [1] is T1, human PD-L1 (human, UniProt Q9NZQ7). The experiment in a line: FACS binding, CHO-K1 cells. (In general: A flow cytometer gives signals particle by particle.)
Assay [2] concerns the target T1, human PD-L1. The assay can be described thus: FACS binding, CHO-K1 cells. The source holds these as a separate data set.

T1 sequence (Q9NZQ7 19-290): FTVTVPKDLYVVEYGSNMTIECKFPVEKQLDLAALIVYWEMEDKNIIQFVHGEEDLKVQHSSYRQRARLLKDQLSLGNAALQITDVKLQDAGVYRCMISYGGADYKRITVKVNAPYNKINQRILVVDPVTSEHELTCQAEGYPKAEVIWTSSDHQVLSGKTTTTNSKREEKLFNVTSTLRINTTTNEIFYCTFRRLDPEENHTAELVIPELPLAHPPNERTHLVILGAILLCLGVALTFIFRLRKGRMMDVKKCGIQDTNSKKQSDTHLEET

B1: sdAb-PDL1c-IgG4PE (Fc fusion)
chain: EVQLVESGGGLVQPGGSLRLSCAASGRTFITYAIGWFRQAPGKGREFVSAISWSGSMTSYADSVKGRFTISRDNAKNTLYLQMNSLRPEDTAVYYCAAHRGAIAPIAQSVYTNWGQGTLVTVSS[letters of human IgG4 Fc with changes not shown]
What is called EC50 is the midpoint of the concentration-response curve. A low value points to a more potent agent. In the assay with human PD-L1 [1], B1 came in with an EC50 of 0.0683 nM.

B2: sdAb-PDL1b-IgG4PE (Fc fusion)
chain: EVQLVESGGGLVQPGGSLRLSCAASGRTFVTYGMGWFRQAPGKGREFVSAISWSGSSTSYGDSVKGRFTISRDNAKNTLYLQMNSLRPEDTAVYYCAAALGAVVYTTREPYTYWGQGTLVTVSS[letters of human IgG4 Fc with changes not shown]
For B2, in the assay with human PD-L1 [1], a half-maximal effect (EC50) was put at 0.0558 nM.

B3: sdAb-PDL1a-IgG4PE (Fc fusion)
chain: EVQLVESGGGLVQPGGSLRLSCAASGRTFVTYGMGWFRQAPGKGREFVSAISWSGSMTSYGDSVKGRFTISRDNAKNTLYLQMNSLRPEDTAVYYCAAALGAVVYTTREPYTYWGQGTLVTVSS[letters of human IgG4 Fc with changes not shown]
In the case of B3, the EC50 turned out to be 0.0712 nM in the assay with human PD-L1 [1] and 0.333 nM in the assay with human PD-L1 [2].
